# According to the supplement of paper PMC8728848:
# The list shows a part of the results.
# Key:
# Assay in all cases: glycan array binding signal (z-score within array); higher = stronger binding
# Details in all cases: glycan notation: IUPAC condensed, linker removed
# [1] = target: Gal(b1-3)GlcNAc6S
# In short: (§1)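 The binding signal is a Z-score computed within each array and averaged over linkers. Arrays of the same protein sequence at different concentrations or buffers were also averaged together. Data originate from 3228 arrays in the Consortium for Functional Glycomics database, kept only where the protein sequence was available.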
# [2] = target: Gal(b1-3)[Fuc(a1-4)]GlcNAc
# In short: as §1
# [3] = target: Gal(b1-3)[Fuc(a1-4)]GlcNAc(b1-2)Man(a1-3)[Gal(b1-3)[Fuc(a1-4)]GlcNAc(b1-2)Man(a1-6)]Man(b1-4)GlcNAc(b1-4)[Fuc(a1-6)]GlcNAc
# In short: as §1
# [4] = target: Gal(b1-3)[Fuc(a1-4)]GlcNAc(b1-3)Gal(b1-3)[Fuc(a1-4)]GlcNAc
# In short: as §1
# [5] = target: Gal(b1-3)[Fuc(a1-4)]GlcNAc(b1-3)Gal(b1-4)GlcNAc
# In short: as §1
# [6] = target: Gal(b1-3)[Fuc(a1-4)]GlcNAc(b1-3)Gal(b1-4)[Fuc(a1-3)]GlcNAc
# In short: as §1
# [7] = target: Gal(b1-3)[Fuc(a1-4)]GlcNAc(b1-6)GalNAc
# In short: as §1
# [8] = target: Gal(b1-3)[GlcNAc(b1-6)]GalNAc
# In short: as §1
# [9] = target: Gal(b1-3)[Neu5Ac(a2-6)]GalNAc
# In short: as §1
# [10] = target: Gal(b1-3)[Neu5Ac(a2-6)]GlcNAc(b1-6)Gal(b1-4)Glc
# In short: as §1
# [11] = target: Gal(b1-3)[Neu5Ac(b2-6)]GalNAc
# In short: as §1
# [12] = target: Gal(b1-4)Gal
# In short: as §1
# [13] = target: Gal(b1-4)GalNAc(a1-3)[Fuc(a1-2)]Gal(b1-4)GlcNAc
# In short: as §1
# [14] = target: Gal(b1-4)GalNAc(b1-3)[Fuc(a1-2)]Gal(b1-4)GlcNAc
# In short: as §1
# [15] = target: Gal(b1-4)Glc
# In short: as §1
# [16] = target: Gal(b1-4)Glc6S
# In short: as §1
# [17] = target: Gal(b1-4)GlcNAc
# In short: as §1
# [18] = target: Gal(b1-4)GlcNAc(a1-6)Gal(b1-4)GlcNAc
# In short: as §1
# [19] = target: Gal(b1-4)GlcNAc(b1-2)Man
# In short: as §1
# [20] = target: Gal(b1-4)GlcNAc(b1-2)Man(a1-3)Man(b1-4)GlcNAc(b1-4)GlcNAc
# In short: as §1
# [21] = target: Gal(b1-4)GlcNAc(b1-2)Man(a1-3)[Gal(b1-4)GlcNAc(b1-2)Man(a1-6)]Man(b1-4)GlcNAc(b1-4)GlcNAc
# In short: as §1
# [22] = target: Gal(b1-4)GlcNAc(b1-2)Man(a1-3)[Gal(b1-4)GlcNAc(b1-2)Man(a1-6)]Man(b1-4)GlcNAc(b1-4)[Fuc(a1-6)]GlcNAc
# In short: as §1
# [23] = target: Gal(b1-4)GlcNAc(b1-2)Man(a1-3)[Gal(b1-4)GlcNAc(b1-2)][GlcNAc(b1-4)]Man(b1-4)GlcNAc(b1-4)GlcNAc
# In short: as §1
# [24] = target: Gal(b1-4)GlcNAc(b1-2)Man(a1-3)[GlcNAc(b1-2)Man(a1-6)]Man(b1-4)GlcNAc(b1-4)GlcNAc
# In short: as §1
# [25] = target: Gal(b1-4)GlcNAc(b1-2)Man(a1-3)[Man(a1-6)]Man(b1-4)GlcNAc(b1-4)GlcNAc
# In short: as §1
# [26] = target: Gal(b1-4)GlcNAc(b1-2)Man(a1-6)Man(b1-4)GlcNAc(b1-4)GlcNAc
# In short: as §1
# [27] = target: Gal(b1-4)GlcNAc(b1-2)Man(a1-6)[GlcNAc(b1-2)Man(a1-3)]Man(b1-4)GlcNAc(b1-4)GlcNAc
# In short: as §1
# [28] = target: Gal(b1-4)GlcNAc(b1-2)Man(a1-6)[Man(a1-3)]Man(b1-4)GlcNAc(b1-4)GlcNAc
# In short: as §1
# [29] = target: Gal(b1-4)GlcNAc(b1-2)[Gal(b1-4)GlcNAc(b1-4)]Man(a1-3)[Gal(b1-4)GlcNAc(b1-2)Man(a1-6)]Man(b1-4)GlcNAc(b1-4)GlcNAc
# In short: as §1
# [30] = target: Gal(b1-4)GlcNAc(b1-2)[Gal(b1-4)GlcNAc(b1-4)]Man(a1-3)[Gal(b1-4)GlcNAc(b1-2)[Gal(b1-4)GlcNAc(b1-6)]Man(a1-6)]Man(b1-4)GlcNAc(b1-4)GlcNAc
# In short: as §1
# [31] = target: Gal(b1-4)GlcNAc(b1-2)[Gal(b1-4)GlcNAc(b1-4)]Man(a1-3)[GlcNAc(b1-4)][Gal(b1-4)GlcNAc(b1-2)Man(a1-6)]Man(b1-4)GlcNAc(b1-4)GlcNAc
# In short: as §1
# [32] = target: Gal(b1-4)GlcNAc(b1-2)[Gal(b1-4)GlcNAc(b1-4)]Man(a1-3)[GlcNAc(b1-4)][Gal(b1-4)GlcNAc(b1-2)[Gal(b1-4)GlcNAc(b1-6)]Man(a1-6)]Man(b1-4)GlcNAc(b1-4)GlcNAc
# In short: as §1
# [33] = target: Gal(b1-4)GlcNAc(b1-2)[Gal(b1-4)GlcNAc(b1-4)]Man(a1-3)[GlcNAc(b1-4)][Gal(b1-4)GlcNAc(b1-2)[Gal(b1-4)GlcNAc(b1-6)]Man(a1-6)]Man(b1-4)GlcNAc(b1-4)[Fuc(a1-6)]GlcNAc
# In short: as §1
# [34] = target: Gal(b1-4)GlcNAc(b1-2)[Gal(b1-4)GlcNAc(b1-6)]Man(a1-6)[Gal(b1-4)GlcNAc(b1-2)Man(a1-3)]Man(b1-4)GlcNAc(b1-4)GlcNAc
# In short: as §1
# [35] = target: Gal(b1-4)GlcNAc(b1-2)[Gal(b1-4)GlcNAc(b1-6)]Man(a1-6)[Gal(b1-4)GlcNAc(b1-2)Man(a1-3)]Man(b1-4)GlcNAc(b1-4)[Fuc(a1-6)]GlcNAc
# In short: as §1
# [36] = target: Gal(b1-4)GlcNAc(b1-2)[Gal(b1-4)GlcNAc(b1-6)]Man(a1-6)[GlcNAc(b1-4)][Gal(b1-4)GlcNAc(b1-2)Man(a1-3)]Man(b1-4)GlcNAc(b1-4)GlcNAc
# In short: as §1
# [37] = target: Gal(b1-4)GlcNAc(b1-3)Gal(b1-3)GlcNAc
# In short: as §1
binder,measurement,setting,value
"Strep tagII-anxA1 (Homo sapiens), P04083 (protein) MAMVSEFLKQAWFIENEEQEYVQTVKSSKGGPGSAVSPYPTFNPSSDVAALHKAIMVKGVDEATIIDILTKRNNAQRQQIKAAYLQETGKPLDETLKKALTGHLEEVVLALLKTPAQFDADELRAAMKGLGTDEDTLIEILASRTNKEIRDINRVYREELKRDLAKDITSDTSGDFRNALLSLAKGDRSEDFGVNEDLADSDARALYEAGERRKGTDVNVFNTILTTRSYPQLRRVFQKYTKYSKHDMNKVLDLELKGDIEKCLTAIVKCATSKPAFFAEKLHQAMKGVGTRHKALIRIMVSRSEIDMNDIKAFYQKMYGISLCQAILDETKGDYEKILVALCGGN",glycan array binding signal (z-score),[1],0.931
same,glycan array binding signal (z-score),[2],0.765
same,glycan array binding signal (z-score),[3],2.5
same,glycan array binding signal (z-score),[4],-0.366
same,glycan array binding signal (z-score),[5],-0.748
same,glycan array binding signal (z-score),[6],-0.588
same,glycan array binding signal (z-score),[7],0.179
same,glycan array binding signal (z-score),[8],-0.339
same,glycan array binding signal (z-score),[9],-0.631
same,glycan array binding signal (z-score),[10],-0.49
same,glycan array binding signal (z-score),[11],-0.714
same,glycan array binding signal (z-score),[12],-0.735
same,glycan array binding signal (z-score),[13],-0.754
same,glycan array binding signal (z-score),[14],0.232
same,glycan array binding signal (z-score),[15],0.139
same,glycan array binding signal (z-score),[16],-0.455
same,glycan array binding signal (z-score),[17],-0.156
same,glycan array binding signal (z-score),[18],0.231
same,glycan array binding signal (z-score),[19],0.18
same,glycan array binding signal (z-score),[20],-0.266
same,glycan array binding signal (z-score),[21],-0.682
same,glycan array binding signal (z-score),[22],-0.215
same,glycan array binding signal (z-score),[23],1.45
same,glycan array binding signal (z-score),[24],-0.567
same,glycan array binding signal (z-score),[25],1.08
same,glycan array binding signal (z-score),[26],-0.229
same,glycan array binding signal (z-score),[27],0.018
same,glycan array binding signal (z-score),[28],-0.601
same,glycan array binding signal (z-score),[29],-0.585
same,glycan array binding signal (z-score),[30],-0.679
same,glycan array binding signal (z-score),[31],-0.723
same,glycan array binding signal (z-score),[32],0.034
same,glycan array binding signal (z-score),[33],-0.742
same,glycan array binding signal (z-score),[34],1.51
same,glycan array binding signal (z-score),[35],1.21
same,glycan array binding signal (z-score),[36],-0.186
same,glycan array binding signal (z-score),[37],-0.436
